Legend:
[1] = test system: active cellular DUBs; assay: Deubiquitinase activity assay (HA-UbVS labeling) in RAW 264.7 cells; conditions: 5 µM, 4 h, compared to untreated cells
[2] = test system: RAW 264.7 cells

Compound | active DUBs by HA-UbVS labeling (anti-HA immunoblot) [1] | concentrations showing marked toxicity [2]
CCCC(NC(=O)/C(C#N)=C/c1cccc(F)n1)c1ccc(OCCN2CCOCC2)cc1 (stereo not drawn) [Compound 7] | diminished expression of active DUBs | 
CCC[C@H](NC(=O)/C(C#N)=C/c1cccc(Br)n1)c1ccccc1 [WP1130, reference compound] | diminished expression of active DUBs | above 6 µM
